Results published in the supplement of paper PMC3334620.
Whole data set: some 33,000 sequences, median “E-score (-0.5 to 0.5)” near -0.011, cut for the highest 2% near 0.28. This is one part of the list.

Molecular target: T1, Gcr1 (UniProt P07261)
T1 sequence: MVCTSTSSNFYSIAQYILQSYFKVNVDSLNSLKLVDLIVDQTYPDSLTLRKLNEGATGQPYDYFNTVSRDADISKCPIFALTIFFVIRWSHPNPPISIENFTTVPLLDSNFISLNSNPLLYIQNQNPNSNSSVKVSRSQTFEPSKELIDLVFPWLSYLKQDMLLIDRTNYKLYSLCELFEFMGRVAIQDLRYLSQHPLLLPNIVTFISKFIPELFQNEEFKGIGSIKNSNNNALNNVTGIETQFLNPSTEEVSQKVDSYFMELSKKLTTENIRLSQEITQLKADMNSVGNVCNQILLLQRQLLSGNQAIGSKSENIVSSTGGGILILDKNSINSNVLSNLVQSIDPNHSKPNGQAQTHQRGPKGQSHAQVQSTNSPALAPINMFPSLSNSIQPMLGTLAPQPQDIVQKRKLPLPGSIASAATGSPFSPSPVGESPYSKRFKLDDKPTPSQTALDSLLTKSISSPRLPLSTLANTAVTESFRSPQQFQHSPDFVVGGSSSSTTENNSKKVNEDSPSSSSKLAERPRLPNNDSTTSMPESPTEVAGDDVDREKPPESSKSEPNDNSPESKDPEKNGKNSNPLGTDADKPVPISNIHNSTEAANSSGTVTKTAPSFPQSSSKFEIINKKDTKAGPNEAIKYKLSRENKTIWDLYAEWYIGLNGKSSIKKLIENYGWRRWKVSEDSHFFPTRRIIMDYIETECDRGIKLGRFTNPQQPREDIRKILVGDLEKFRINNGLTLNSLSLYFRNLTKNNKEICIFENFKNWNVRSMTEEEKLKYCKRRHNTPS
Assay: PBM E-score (8-mer binding enrichment) (E-score (-0.5 to 0.5)); higher = stronger / more preferred TF binding; most listed sequences are background and not binding sites
Details: protein concentration: 100 nM; construct: GST-full length
Summary of the method: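 For each ungapped eight-base word taken together with its reverse complement, the Universal PBM Analysis Suite assigned an E-score. Binding data came from GST-tagged yeast transcription factors, applied at about 100-200 nM, on universal all-10-mer Agilent arrays made double-stranded by primer extension. Fluorescent anti-GST marked bound protein, and scans were normalised with masliner.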

Row | Sequence | PBM E-score
1 | GAGTGAGA | -0.208
2 | GTATCCAC | 0.0417
3 | TTAGCAAA | -0.18
4 | AAAGTGCG | 0.105
5 | TCCATTAA | 0.23
6 | GCGCCAGA | 0.0605
7 | TACCGCCA | -0.0256
8 | CTCAAAAG | 0.258
9 | CGTATGCC | -0.0765
10 | GACATAGA | -0.155
11 | AGAGTTAG | -0.0275
12 | CTGTATAA | 0.124
13 | AGCTTGCG | -0.194
14 | AATGTAGA | -0.0445
15 | AGCTCTGC | -0.241
16 | TGTACAAA | 0.121
17 | CAATTGGC | -0.0157
18 | CCGGAGCA | 0.00192
19 | ACCGAACA | 0.101
20 | GCTTGTAC | 0.0759
21 | ATTCATAG | 0.025
22 | GCCTTAGA | -0.0411
23 | CCTACACC | -0.0615
24 | CATATGGA | 0.0826

Row | Sequence | PBM E-score
25 | GAGCCGAC | 0.0489
26 | CGCCTATA | 0.19
27 | TGACGCCA | -0.0776
28 | AAATTAAT | 0.0362
29 | AGTCATCG | -0.0672
30 | TCGTGTAA | 0.257
31 | ACTAACCC | 0.103
32 | GACGGAGA | -0.136
33 | ATTGCCCA | -0.263
34 | CTGAGAAG | -0.0411
35 | CTGCCTTC | -0.103
36 | GCTCACCC | 0.0421
37 | CTTACTAA | -0.112
38 | GATGAGAC | -0.00642
39 | CGGGTCAG | -0.078
40 | CGCGAAAG | -0.0825
41 | AGACCTAT | 0.0452
42 | CCTATTGA | 0.00469
43 | AAGCCCAT | 0.0633
44 | AACATCAT | -0.0707
45 | AAGGCCAA | -0.218
46 | CTCTGAGA | -0.0743
47 | GACTCTTA | 0.171
48 | CCCTGAAC | 0.0468

Row | Sequence | PBM E-score
49 | AACAAAAG | -0.054
50 | GAGCTAGA | 0.00673
51 | CATCCAGC | 0.198
52 | CCATGGCC | -0.261
53 | AGGCGTCC | 0.387
54 | GGCGGAAC | -0.096
55 | ATAGCGCA | 0.0425
56 | CGTGTATA | 0.0972
57 | TACGATCA | -0.049
58 | GCGCAAGA | 0.123
59 | ACAATCAT | -0.0418
60 | AAGCGAAG | 0.0415
61 | ATGTCTTG | -0.339
62 | AGTGAATG | -0.0265
63 | CACCGTCA | -0.0141
64 | GCGCGCTA | 0.101
65 | GTATCTCA | 0.194
66 | AGATTGCG | -0.0855
67 | AAGGTCGA | -0.0525
68 | GGTAGTAA | 0.00084
69 | GGTCGAAC | -0.163
70 | CCGGGGCG | 0.0378
71 | CAATCGTG | -0.0722
72 | CATCCACG | 0.0306

Row | Sequence | PBM E-score
73 | ATTCTTTA | 0.0537
74 | GCCATGCA | -0.175
75 | GCCGTAAA | 0.141
76 | CCACAACG | 0.00921
77 | TATCCGGA | 0.161
78 | AGATGACA | 0.0907
79 | TCATCTAA | -0.0664
80 | GGAGAAAA | -0.127
81 | AGTCATAA | 0.0165
82 | CTGGGAAA | -0.121
83 | CAGAGCTG | -0.23
84 | AATCAGAC | 0.0464
85 | TCAGAAGA | 0.0181
86 | ATGGCTGC | 0.168
87 | GTCTAGTA | -0.0488
88 | ACTAGTTA | 0.211
89 | ACGGAACG | 0.082
90 | CCTAATAC | -0.0055
91 | ACGACCGC | -0.124
92 | CAGTGGCC | -0.0713
93 | CCCCTTGC | -0.106
94 | CTCCTGTA | 0.236
